Reference: PubChem BioAssay AID1240 (Sanford-Burnham Center for Chemical Genomics, 2008)
The campaign covered roughly 50,000 compounds. About 800 (1.6%) showed an effect of 50% or more. Some of the results follow.

biological target: Bcl-2-like protein 10 (Homo sapiens) (UniProt Q9HD36); test: Phenotype converters, Bcl-B/TR3 peptide binding displacement, primary biochemical FP (AID 1240); settings: GST-Bcl-B / FITC-TR3 peptide fluorescence polarization; stronger effect = higher value; compound at 3.75 mg/L;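 note: 0% = Bcl-B with tracer peptide and DMSO and 100% = tracer peptide lacking Bcl-B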
Sequence of UniProt Q9HD36 (Q9HD36 whole entry, looked up): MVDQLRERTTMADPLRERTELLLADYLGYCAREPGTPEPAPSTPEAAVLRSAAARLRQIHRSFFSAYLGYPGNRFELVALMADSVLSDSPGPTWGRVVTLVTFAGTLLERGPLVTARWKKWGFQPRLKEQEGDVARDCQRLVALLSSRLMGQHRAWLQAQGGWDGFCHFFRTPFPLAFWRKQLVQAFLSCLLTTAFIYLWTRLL

Structure (SMILES) | displacement
NC(=O)Nc1ccc(C23CC4CC(CC(C4)C2)C3)cc1 | 0.5%
Cc1occc1C(=O)N/N=C/c1ccc(-c2cccc([N+](=O)[O-])c2)o1 | -7.7%
O=C(COc1ccccc1Cl)Nc1cccc(NC(=O)c2cccc(Cl)c2)c1 | 13.8%
O=S(=O)(c1ccc(NC(=S)Nc2ccccc2)cc1)N1CCc2ccccc21 | 9.1%
COc1ccc(OC)c(/C=C/C(=O)c2ccc(F)cc2)c1 | -37.5%
Cc1ccc(Cl)cc1N(Cc1ccc(C(=O)O)cc1)S(=O)(=O)c1ccccc1 | -4.9%
COCCNC(=O)c1cnn2c(-c3ccccc3)cc(-c3ccccc3)nc12 | 15.9%
O=C1OC(c2ccc(Br)cc2)=C/C1=C/c1ccc2c(c1)OCO2 | 10.7%
Cc1cc2c(cc1C)N(C(=O)CN1C(=O)c3ccccc3C1=O)C(C)(C)c1ssc(=S)c1-2 | 5.8%
CN(C)c1ccc(/C=C2\C(=O)Oc3ccccc3C2=O)cc1 | 7.6%
CCOc1ccc(N2C(=O)CC(NCC(=O)OC)C2=O)cc1 (stereo unspecified) | -23.7%
COc1ccc(-c2nnc(Nc3ccc4c(c3)nc(C)n4C)c3ccccc23)cc1 | 3%
Oc1c(Cl)cc(Cl)cc1/C=N/Nc1nc(-c2ccc(Br)cc2)cs1 | -6.7%
CC(C)/C=C1\CCCC\C1=N/NC(N)=O | -7.4%
Cc1c(NC(=O)c2ccc(CSc3ccc(Cl)cc3)cc2)c(=O)n(-c2ccccc2)n1C | 18.8%
Cc1ccc(Cl)c(OCC(O)Cn2c(C)nc3ccccc32)c1 (stereo unspecified) | -11.5%
COc1cc(C2/C(=C(\O)c3ccc(Cl)cc3)C(=O)C(=O)N2c2cccnc2)ccc1O (stereo unspecified) | 12.6%
COCCCNC(=O)COc1ccccc1 | 12.4%
Cc1ccc(NC(=O)c2cc([N+](=O)[O-])ccc2Cl)cc1Cl | -1.1%
O=C1/C(=C/c2cn(-c3ccccc3)nc2-c2cccs2)SC(=S)N1C1CCS(=O)(=O)C1 (stereo unspecified) | 100%
O=[N+]([O-])c1cccc(S(=O)(=O)Nc2ccccc2CO)c1 | 4.1%
C=CCNC(=O)CN(c1ccc(C)cc1)S(=O)(=O)c1ccc(OCC)cc1 | 8.8%

Structure (SMILES) | displacement
CC(=O)C1=C(C)N=c2s/c(=C/c3ccc(N(C)C)cc3)c(=O)n2C1c1ccccc1 (stereo unspecified) | 3%
S=c1[nH]nc(COc2ccc(Cl)cc2Cl)n1-c1ccccc1 | -7.2%
O=C1CC(NCc2ccc3c(c2)OCO3)C(=O)N1c1ccc(F)cc1 (stereo unspecified) | -7.8%
Cc1cc(C(=O)Nc2ccc(N(C)C)cc2)c(C)o1 | 11.9%
CC(=O)Oc1ccc(N2C(=O)C3CC(C)=C(C)CC3C2=O)cc1 (stereo unspecified) | 11%
COc1cc2c(cc1NS(=O)(=O)c1cccc([N+](=O)[O-])c1)oc1ccccc12 | 6.8%
CCc1c(C)sc(NC(=O)c2cccc([N+](=O)[O-])c2)c1C(N)=O | 18.2%
COc1cccc(CN2CCN(C3CC4CCC3C4)CC2)c1OC (stereo unspecified) | -12%
COc1ccc(C(=O)Nc2ccc(N3CCCCC3)cc2)cc1[N+](=O)[O-] | 2.7%
O=C(COc1ccc2ccccc2c1)NCC1CCCO1 (stereo unspecified) | 12.6%
Cc1ccccc1Oc1nc2ccccc2n2cnnc12 | -14.3%
Cc1ccc(-n2nc3cc(C)c(NC(=O)COc4ccccc4C)cc3n2)cc1 | -3.1%
COc1ccc(CCNC(=O)CN(c2ccc(F)cc2)S(=O)(=O)c2ccccc2)cc1OC | -2.9%
Cc1cc(=O)oc2cc(OCC(=O)OCc3ccccc3)ccc12 | -0.9%
CN1C(=O)/C(=C\c2cn(Cc3ccc(F)cc3)c3ccccc23)SC1=S | 14.9%
CCc1cc2c(=O)c(-c3nc4ccccc4n3C)c(C)oc2c(CN2CCN(C)CC2)c1O | 10.8%
COCCNC(=O)C(=O)Nc1cc(OC)ccc1OC | 10.6%
C=CCOc1ccc(/C=C/C(=O)c2ccc(F)cc2)cc1OC | 20.2%
CC(=O)c1ccc(NC(=O)c2ccc3c(c2)C(=O)N(N2C(=O)c4ccccc4C2=O)C3=O)cc1 | 42.1%
CC(=O)Oc1cccc(C(=O)Nc2ccc(-c3nc4ccccc4o3)cc2)c1 | 3.1%
COCCCNC(=O)c1ccc([N+](=O)[O-])cc1 | -6.7%
O=C1CCCc2c1[nH]c1ccc(CN3CCCCC3)cc21 | -4.1%

Structure (SMILES) | displacement
Cc1cnnn1-c1ccc(C(=O)/C=C\c2ccco2)cc1 | 24.3%
COc1cccc(C2C(C#N)=C(C)NC3=C2C(=O)CC(c2ccccc2)C3)c1OC (stereo unspecified) | 13.6%
CCOc1cc(C2Nc3ccccc3NC3=C2C(=O)CC(c2ccccc2)C3)cc(Br)c1O (stereo unspecified) | -9.5%
c1ccc(C2=C(c3ccccc3)N3CCN=C3S2)cc1 | 6.4%
CC(=O)N1c2ccccc2C(C)=CC1(C)C | -6%
CC1=C(C(=O)Nc2ccc(Br)cc2)C(c2ccccc2F)NC(=S)N1 (stereo unspecified) | 11.4%
COc1cc(/C=N/NC(=O)Cc2nnc(N)s2)cc(OC)c1OC | 9%
COc1ccc(C2Nc3ccccc3NC3=C2C(=O)CC(c2ccccc2)C3)cc1OC (stereo unspecified) | -10.5%
Cc1ccc(N(CC(=O)Nc2cccc(C(F)(F)F)c2)S(=O)(=O)c2ccc(F)cc2)cc1 | 8.5%
CC(C)NC(=O)C(=O)Nc1ccc2c(c1)OCCO2 | 2.1%
O=C(Nc1ccc(Cl)cc1)C1CC(=O)N(c2cccc([N+](=O)[O-])c2)C1 (stereo unspecified) | 22.5%
O=C(O)c1ccccc1SCCSc1ccccc1C(=O)O | 3.2%
O=C1OC(c2sc3ccccc3c2Cl)=N/C1=C/c1ccccc1 | 10%
N#C/C(=C\c1ccc(-c2ccc(Cl)cc2)o1)C(=O)Nc1ccccc1O | -1%
O=[N+]([O-])c1ccc(NCCOCCO)c(Cl)c1 | -14.9%
COc1ccc(NC(=O)CN(c2ccc(C(C)C)cc2)S(=O)(=O)c2ccccc2)c(OC)c1 | 0%
O=C(CN1C(=O)c2ccccc2C1=O)Nc1ccc(O)cc1C(=O)O | -1.9%
O=C1C(=O)N(CCCn2ccnc2)C(c2ccccc2F)/C1=C(\O)c1ccc(Cl)cc1 (stereo unspecified) | -1%
CCOc1ccc(N(CC(=O)N2CCN(c3ccccc3)CC2)S(=O)(=O)c2ccccc2)cc1 | 40.7%
O=C(NCCN1CCN(C(=O)c2ccc(Cl)cc2)CC1)c1ccc(Cl)cc1 | -3.6%
Nc1nc2ccccc2n1C(=O)c1c(Cl)cccc1Cl | 1.4%
CN1C(=O)C(=Cc2cc(Br)c(O)c(I)c2)C(=O)N(C)C1=O | -7.9%

Structure (SMILES) | displacement
Fc1cccc(Cl)c1Cc1noc(-c2ccccc2Br)n1 | 14.3%
O=C1Nc2ccccc2/C1=N/N=C/c1ccc(-c2ccc(Cl)cc2)o1 | 0.9%
O=C(NN1C(=O)/C(=C/c2cccnc2)SC1=S)C(c1ccccc1)c1ccccc1 | -18.1%
Cc1ccc(-n2c(C)cc(C=C3C(=O)NC(=S)NC3=O)c2C)cc1C | 0.1%
CN1CCN(c2cc(N3CCN(CCO)CC3)ccc2[N+](=O)[O-])CC1 | 4.7%
Cc1ccccc1OCC(=O)Nc1ccc(-c2nc3ccccc3[nH]2)cc1 | 11.8%
CC(CO)(CO)NC(=O)C(F)(F)C(F)(F)C(=O)NC(C)(CO)CO | -0.3%
Cc1ccc(NC(=O)CSc2nnc(-c3ccccc3)c(-c3ccccc3)n2)cc1 | -1.6%
CCn1c(SCC(=O)N/N=C/C=C/c2ccccc2)nc2ccccc21 | -11.6%
CCOc1cc(Br)c(Br)c(/C=C2/SC(=O)NC2=O)c1O | -10.9%
COc1cccc(NC(=O)c2c(-c3c(Cl)cccc3Cl)noc2C)c1 | 10.2%
COc1cc2nc(-c3ccc([N+](=O)[O-])c(C)c3)oc(=O)c2cc1OC | -11.4%
Cc1ccccc1NC(=O)c1ccco1 | 14%
Cc1ccc([N+](=O)[O-])cc1-c1ccc(/C=C2/C(=O)NC(=O)N(c3ccccc3)C2=O)o1 | 82.8%
COC(=O)C1=C(C)N(c2ccc(C)c(C)c2)/C(=C\c2ccc(OCC(=O)Nc3ccccc3OC)cc2)C1=O | 68%
COc1ccc(N(CC(=O)Nc2cccc(Cl)c2)S(=O)(=O)c2ccc(C)cc2)c(OC)c1 | 6.8%
Cc1ccc(C)c(NC(=O)CN(c2cc(Cl)cc(Cl)c2)S(C)(=O)=O)c1 | 0.1%
CCOC(=O)c1sc(NC(=O)C2COc3ccccc3O2)c(C(=O)OCC)c1C (stereo unspecified) | 0.2%
Cc1cccc(C(C)C)c1NC(=O)Nc1cccc(Cl)c1 | -2%
CCCCc1nc(N)c(C#N)c(-c2cccc(Br)c2)c1CCC | 44.9%
Cc1ccc(NC(=O)c2c(C)nc3ccccn23)cc1 | 26.7%
Cc1ccc(C2SCC(=O)N2c2ccc(Cl)c(Cl)c2)cc1 (stereo unspecified) | 12.9%

Structure (SMILES) | displacement
CCOc1ccc(S(=O)(=O)N(CC(=O)Nc2ccccc2C)c2ccc(C)cc2)cc1 | 5.2%
O=C(Cc1ccccc1[N+](=O)[O-])N1CCN(c2ccc(F)cc2)CC1 | 11.4%
C=CCNC(=O)c1cnn(-c2ccccc2)c1NC(=O)c1ccccc1Cl | 1.9%
O=C(Nc1ccccc1C(F)(F)F)C12CC3CC(CC(C3)C1)C2 | -4.2%
CCCCOC(=O)c1ccc(NC(=O)c2cc([N+](=O)[O-])ccc2Br)cc1 | 10.6%
CCOC(=O)c1sc(NC(=O)c2ccc(Br)o2)c(C(N)=O)c1C | 12.9%
COc1ccc(CNC(=O)/C=C/c2ccccc2)cc1 | 12.3%
COc1ccccc1N1CCN(C(=O)c2nn3c(c2Cl)NC(c2ccc(Br)cc2)CC3C(F)(F)F)CC1 (stereo unspecified) | 10%
Cc1cccc(C)c1NC(=S)NC(=O)c1ccccc1 | -5.1%
O=C(CSc1cccc2cccnc12)Nc1ccccc1 | -3.3%
COc1ccc2c(-c3ccccc3)cc(=O)[nH]c2c1 | -6.2%
COc1ccc(N2C(=O)NC(=O)/C(=C\c3ccc(O)c(Cl)c3)C2=O)cc1 | 12.1%
COc1ccc(C(=O)N2CCN(C3CCCCC3)CC2)cc1 | 1%
CC(O)c1ccc(NC(=O)c2cnn3c2NC(c2ccc(F)cc2)CC3C(F)(F)F)cc1 (stereo unspecified) | 3%
Cc1cc(N2C(=O)NC(=O)/C(=C\c3sccc3C)C2=O)ccc1Br | -20.8%
O=C(COc1ccc(Br)cc1)NCc1ccccn1 | 0%
CCOC(=O)c1c(N)sc(C(=O)N(C)Cc2ccccc2)c1C | 2.9%
Cc1ccc(NS(=O)(=O)c2cc(Cl)ccc2Cl)c(Br)c1 | 4.4%
